Consider 10 compounds from the supplement of paper PMC4604168 (melanoma cell lines).

This is one part of the list. Repeats are few or missing, and single values can be far off.

Test systems include MZ2-MEL; MeWo; RPMI7951; RVH-421; SkMel28; SkMel2; SkMel30; SkMel5; UACC257; UACC62.
What all share (experiment): cell count relative to DMSO control; melanoma cells; higher = more viable cells
Holding throughout (conditions): library dose: low library concentration; 72 h
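Note: cell number obtained by counting DAPI-stained nuclei in high-throughput microscope images with image analysis software, screen run in 1,536-well plates.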

On to `C=CCNC1=C2C[C@@H](C)C[C@H](OC)[C@H](O)[C@@H](C)/C=C(\C)[C@H](OC(N)=O)[C@@H](OC)/C=C\C=C(/C)C(=O)NC(=CC1=O)C2=O` [Tanespimycin] + COc1ccc(COc2ccc(Cc3cnc(N)nc3N)cc2OC)cc1 [GW2580] (first compound 0.002 µM, partner dose 1 µM), for which the cell count was 94.9% in the test on MZ2-MEL; 97.2% in the test with MeWo; 106% with RPMI7951; 101% in the test with RVH-421; 84.3% with SkMel28; 108% in the test with SkMel2. The cell count with SkMel30 was determined as 99.3%; with SkMel5, 95.8%; in the test with UACC257 it was 61.9%; in the test on UACC62, 89.7%.
As to `CN1CCN(c2ccc3nc(-c4c(N)c5c(F)cccc5[nH]c4=O)[nH]c3c2)CC1` [Dovitinib] + CC(C)CCN1c2nc(Nc3cc(F)c(O)c(F)c3)ncc2N(C)C(=O)C1C [BID1870] (first compound 0.1 µM, partner dose 0.2 µM), the cell count in the test with MZ2-MEL was 103%; with MeWo, 79.1%; in the test with RPMI7951 it was 103%; with RVH-421, 167%; in the test on SkMel28, 77.7%; in the test with SkMel2, 95.8%. The cell count was 106% with SkMel30, 106% in the test on SkMel5, 117% in the test on UACC257 and 95.5% with UACC62.
As for `CNC(=O)c1cc(Oc2ccc(NC(=O)Nc3ccc(Cl)c(C(F)(F)F)c3)cc2)ccn1` [sorafenib] + C[C@@H]1CCN(C(=O)CC#N)C[C@@H]1N(C)c1ncnc2[nH]ccc12 [CP690550] (first compound 0.4 µM, partner dose 1 µM), the cell count in the test with MZ2-MEL came to 106%; in the test with MeWo, 88.9%; in the test on RPMI7951, 94.7%; with RVH-421, 107%; in the test on SkMel28, 90.8%; in the test with SkMel2, 98%. Also, the cell count in the test with SkMel30 came out at 111%; with SkMel5, 90.1%; with UACC257, 101%; with UACC62, 94.8%.
With `CN1CCN(c2ccc3nc(-c4c(N)c5c(F)cccc5[nH]c4=O)[nH]c3c2)CC1` [Dovitinib] + Cn1cncc1[C@@](N)(c1ccc(Cl)cc1)c1ccc2c(c1)c(-c1cccc(Cl)c1)cc(=O)n2C [tipifarnib] (first compound 0.1 µM, partner dose 0.01 µM), the cell count in the test with MZ2-MEL was 83.5%; with MeWo it was 86.6%; in the test on RPMI7951, 95.3%; in the test with RVH-421, 81.8%; in the test with SkMel28 it was 67.1%; in the test with SkMel2 it was 85.4%. Also, the cell count in the test with SkMel30 is 76.8%; in the test on SkMel5 it was 101%; in the test on UACC257 it was 75.9%; with UACC62 it was 65.2%.
As for `CS(=O)(=O)CCNCc1ccc(-c2ccc3ncnc(Nc4ccc(OCc5cccc(F)c5)c(Cl)c4)c3c2)o1` [lapatinib] + CC(C)(C)c1cnc(CSc2cnc(NC(=O)C3CCNCC3)s2)o1 [SNS-032] (first compound 0.8 µM, partner dose 0.01 µM), the cell count was 113% with MZ2-MEL; 99.5% in the test on MeWo; 94.8% in the test on RPMI7951; 90.3% in the test with RVH-421; 97.5% in the test on SkMel28; 92.6% in the test with SkMel2. Besides, the cell count in the test with SkMel30 was determined as 139%; with SkMel5, 110%; in the test on UACC257 it was 97.6%; in the test on UACC62, 90.7%.
As to `CN1CCN(c2ccc3nc(-c4c(N)c5c(F)cccc5[nH]c4=O)[nH]c3c2)CC1` [Dovitinib] + N#Cc1c(O)c2c(-c3ccc(-c4ccccc4O)cc3)csc2[nH]c1=O [A769662] (first compound 0.1 µM, partner dose 2 µM), the cell count with MZ2-MEL was determined as 101%; in the test with MeWo it was 91.2%; in the test on RPMI7951 it was 89.2%; with RVH-421 it was 87%; with SkMel28 it was 85.5%; in the test on SkMel2, 98.2%. Besides, the cell count is 100% in the test with SkMel30, 84.6% in the test on SkMel5, 78.6% in the test on UACC257 and 96.4% in the test with UACC62.
As to `CN1CCN(c2ccc3nc(-c4c(N)c5c(F)cccc5[nH]c4=O)[nH]c3c2)CC1` [Dovitinib] + CCCCCCCCCCCC1=C(O)C(=O)C=C(O)C1=O [Embelin] (first compound 0.1 µM, partner dose 1.2 µM), the cell count in the test with MZ2-MEL amounted to 92.7%; with MeWo, 97.6%; with RPMI7951 it was 96.4%; in the test on RVH-421, 90.8%; with SkMel28, 86%; in the test with SkMel2 it was 99.7%. For the same compound, the cell count in the test with SkMel30 is 89.4%; in the test with SkMel5, 91.5%; in the test with UACC257 it was 92.4%; in the test on UACC62, 84%.
Consider `CNC(=O)c1cc(Oc2ccc(NC(=O)Nc3ccc(Cl)c(C(F)(F)F)c3)cc2)ccn1` [sorafenib] + CCc1ccc(CCOc2ccc(CC3SC(=O)NC3=O)cc2)nc1 [pioglitazone] (first compound 0.4 µM, partner dose 2 µM), for which the cell count turned out to be 94.9% with MZ2-MEL; 100% in the test with MeWo; 92.9% with RPMI7951; 94.4% in the test on RVH-421; 96.7% with SkMel28; 89.2% in the test with SkMel2. The cell count with SkMel30 amounted to 97.1%; in the test with SkMel5, 99.7%; in the test on UACC257 it was 91.7%; with UACC62, 98.2%.
Consider `C[C@@H](Oc1cc(-c2cnn(C3CCNCC3)c2)cnc1N)c1c(Cl)ccc(F)c1Cl` [Crizotinib] + CN1CCN(c2ccc3nc(-c4c(N)c5c(F)cccc5[nH]c4=O)[nH]c3c2)CC1 [Dovitinib] (first compound 0.2 µM, partner dose 0.1 µM), for which the cell count in the test with MZ2-MEL was 96.4%; with MeWo it was 96.5%; in the test with RPMI7951 it was 107%; in the test with RVH-421 it was 83.6%; in the test on SkMel28 it was 90.9%; in the test with SkMel2, 107%. The cell count in the test on SkMel30 was 87.6%; in the test on UACC62, 93.4%.
`CN1CCN(c2ccc3nc(-c4c(N)c5c(F)cccc5[nH]c4=O)[nH]c3c2)CC1` [Dovitinib] + Nc1nc(F)nc2c1ncn2[C@@H]1O[C@H](CO)[C@@H](O)[C@@H]1O [fludarabine] (first compound 0.1 µM, partner dose 0.2 µM): the cell count in the test with MZ2-MEL worked out at 94.8%; in the test on MeWo it was 44.9%; in the test on RPMI7951 it was 106%; in the test on RVH-421 it was 124%; with SkMel28 it was 71.9%; with SkMel2, 12.8%. Besides, the cell count in the test on SkMel30 turned out to be 16.9%; with UACC62, 85.5%.
